Assay results taken from PubChem BioAssay AID1345082 (National Center for Advancing Translational Sciences (NCATS), 2018).
The campaign covered roughly 94,000 compounds. About 4,000 (4.3%) were called active. This list was built around the results that the source calls inconclusive (neither active nor inactive); the mix of calls is not that of the screen. Calls come from the whole dose curve; as a rule, active = well fitted inhibition curve with a large enough effect; inconclusive = small, poorly fitted or top-dose-only effect; inactive = no such curve, though single readings can be large or run the other way. Where the call is inconclusive, the potency comes from a doubtful curve fit.

Test: Cytotoxic Profiling in NIH 3T3 Cell Line of Diverse Libraries Using Quantitative High-Throughput Screening; note: nearly all actives have a fitted effect of over 55% in size
Conditions: NIH 3T3 viability, CellTiter-Glo ATP luminescence, 48-72 h; series mostly up to 96.7 µM
Procedure, shortened: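 Cytotoxicity was measured by CellTiter-Glo ATP luminescence after 48 or 72 h compound exposure at 37 °C. Mouse NIH 3T3 fibroblasts were seeded at 400 cells/well and dosed by 23 nL pin transfer.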
Potency is the fitted concentration of half-maximal effect; tags give direction and shape of the fitted curve.

Question: Which Potency does the source give for `CSc1ccc(-c2cccc(C(=O)NCCN[S+](=O)([O-])c3cccc(C(F)(F)F)c3)c2)cc1` here?
Answer: The Potency was inconclusive: 4.47 µM [inhibitor, partial curve, poor fit].

Question: For `CN(Cc1ccon1)C(=O)C1CCN(C(=O)C2CCC2)CC1`, which Potency is on record?
Answer: The Potency was “inactive”.

Question: For `CC1=C[C@@H](CNC(=O)c2cnccn2)[C@H](C(C)C)C[C@H]1Cc1nnc(-c2ccccc2F)o1`, which Potency is on record?
Answer: The Potency was inconclusive: 35.5 µM [inhibitor, full curve].

Question: Which Potency does the source give for `CC(C)(C)C(=O)NC1CCCN(c2ccnc3ccnn23)C1` (stereo unspecified) here?
Answer: Its Potency is “inactive”.

Question: For `OCC1(CN2CCCC2)CCN(Cc2cnn(-c3ccccc3)c2)CC1`, which Potency is on record?
Answer: The Potency was inconclusive: 50.1 µM [inhibitor, partial curve, poor fit].

Question: Which Potency does the source give for `COc1cc(F)ccc1-c1ccc2ncn(C3CC3)c(=O)c2n1` here?
Answer: Its Potency is inconclusive: 112 µM [inhibitor, single point].

Question: For `Cc1ccccc1CCC1CCCN(C(=O)C2(C)CC2)C1` (stereo unspecified), which Potency is on record?
Answer: The Potency was inconclusive: 39.8 µM [inhibitor, full curve].

Question: For `CN(Cc1ccc(F)cc1)C(=O)c1ccc(C(F)(F)F)cc1`, which Potency is on record?
Answer: The Potency was inconclusive: 35.5 µM [inhibitor, partial curve, poor fit].

Question: With `COc1cc(F)cc(-c2ccc(COc3ccc4c(cnn4CCC(=O)O)c3)cc2)c1` as the compound, how does the Potency read?
Answer: Its Potency is inconclusive: 89.1 µM [inhibitor, partial curve].

Question: Which Potency does the source give for `CC(C(=O)N1CC(Oc2ccc(-c3noc(-c4ccncc4)n3)cc2)C1)c1ccccc1` (stereo unspecified) here?
Answer: The Potency was active: 25.1 µM.

Question: Which Potency does the source give for `C=CCNC(=O)[C@@H]1Cc2cn(CC=C)c3cccc(c23)[C@H](CC(C)C)N1` here?
Answer: Its Potency is inconclusive: 112 µM [inhibitor, partial curve, poor fit].

Question: With `CCc1noc(CN2CCC3(CC2)CC(=O)N(CCCc2ccccc2)C3)n1` as the compound, how does the Potency read?
Answer: Its Potency is “inactive”.

Question: Which Potency does the source give for `CCc1nc2c(c(-c3ccc(O)cc3)n1)CCN(Cc1ccc(OC(F)(F)F)cc1)CC2` here?
Answer: The Potency was inconclusive: 50.1 µM [inhibitor, partial curve, poor fit].

Question: With `COCCC(=O)N1CCCCCNC(=O)[C@@H]2CCCC[C@@H]21` as the compound, how does the Potency read?
Answer: Its Potency is “inactive”.

Question: Which Potency does the source give for `O=c1c2nc(-c3ccsc3)ccc2ncn1Cc1ccccn1` here?
Answer: The Potency was inconclusive: 89.1 µM [inhibitor, partial curve, poor fit].

Question: Which Potency does the source give for `O=C1N[C@H](CC(=O)N2CCN(c3ccc(C(F)(F)F)cn3)CC2)C(=O)Nc2ccccc21` here?
Answer: The Potency was “inactive”.

Question: For `Cc1nn(-c2ccccc2)c2c1C(C(C)C)N(C1CCCN(C(=O)c3ccc(Cl)nc3)C1)C2=O` (stereo unspecified), which Potency is on record?
Answer: The Potency was inconclusive: 50.1 µM [inhibitor, partial curve, poor fit].

Question: Which Potency does the source give for `COc1cccc(C(=O)NC2CCN(c3cc(-c4ccc(Cl)cc4)[nH]n3)C2)c1` (stereo unspecified) here?
Answer: Its Potency is inconclusive: 44.7 µM [inhibitor, partial curve, poor fit].

Question: For `COc1ccc(C(=O)N[C@@H]2CCC[C@@H]2C(=O)NCc2cc(OC)cc(OC)c2)cc1`, which Potency is on record?
Answer: Its Potency is “inactive”.

Question: With `CC1CCN(CC2CCCCCN2C(=O)c2ccco2)CC1` (stereo unspecified) as the compound, how does the Potency read?
Answer: Its Potency is “inactive”.

Question: Which Potency does the source give for `O=C(Nc1ccnn1C1CCN(Cc2cccc(F)c2F)CC1)c1ccccc1Cl` here?
Answer: Its Potency is inconclusive: 50.1 µM [inhibitor, partial curve, poor fit].

Question: With `O=C1NC2(CCN(Cc3ccccc3C(F)(F)F)CC2)COc2ccccc21` as the compound, how does the Potency read?
Answer: Its Potency is “inactive”.

Question: Which Potency does the source give for `CC(C)(C)c1csc(NC(=O)C[C@H]2NC(=O)c3ccccc3NC2=O)n1` here?
Answer: The Potency was inconclusive: 44.7 µM [inhibitor, partial curve, poor fit].

Question: For `O=C(Cn1ccn2nc(-c3ccccc3)c(CO)c2c1=O)Nc1ccc(Br)cc1`, which Potency is on record?
Answer: Its Potency is inconclusive: 44.7 µM [inhibitor, partial curve, poor fit].

Question: With `CC(=O)NCC1CN(S(=O)(=O)C(C)C)CC12CCCCC2` (stereo unspecified) as the compound, how does the Potency read?
Answer: The Potency was “inactive”.

Question: Which Potency does the source give for `Cc1ccc(C(=O)N2CCc3nc(C4CC4)nc(-c4ccc(Cl)cc4)c3C2)cc1` here?
Answer: Its Potency is inconclusive: 70.8 µM [inhibitor, single point].

Question: Which Potency does the source give for `CCCCc1ncc(-c2nccn2Cc2noc(CC(C)C)n2)[nH]1` here?
Answer: The Potency was inconclusive: 50.1 µM [inhibitor, partial curve, poor fit].

Question: With `O=C(O)COc1ccc(-c2nccc3c2C(=O)N(Cc2ccccc2)CC(COc2ccc4cccnc4c2)O3)cc1` (stereo unspecified) as the compound, how does the Potency read?
Answer: The Potency was inconclusive: 70.8 µM [inhibitor, single point].

Question: With `COc1cccc(N2C(=O)NC(=NC3CCCCC3)C23CCN(CCC(C)C)C3)c1` (stereo unspecified) as the compound, how does the Potency read?
Answer: Its Potency is “inactive”.

Question: For `CCC(C(=O)NCc1nnc2c(-c3nc(C4CC4)no3)cccn12)c1ccccc1` (stereo unspecified), which Potency is on record?
Answer: The Potency was “inactive”.

Question: Which Potency does the source give for `Cc1noc(-c2cn(C3CCN(C(=O)c4cc(Cl)ccc4F)CC3)nn2)n1` here?
Answer: Its Potency is inconclusive: 50.1 µM [inhibitor, partial curve, poor fit].

Question: For `O=C(NC1CCN(c2cc(-c3cccs3)[nH]n2)C1)c1cccc(Br)c1` (stereo unspecified), which Potency is on record?
Answer: Its Potency is inconclusive: 35.5 µM [inhibitor, partial curve].

Question: For `COc1cccc(-c2cc(C(=O)NCc3ccccc3Cl)c3cnn(C)c3n2)c1`, which Potency is on record?
Answer: Its Potency is inconclusive: 17.8 µM [inhibitor, full curve, poor fit].

Question: For `C/C(=C\c1ccccc1)CN1CCC2(CC1)Cc1ccccc1CNC2=O`, which Potency is on record?
Answer: The Potency was inconclusive: 50.1 µM [inhibitor, partial curve, poor fit].

Question: Which Potency does the source give for `Cc1ccc(C#N)c(N2CCC3(CC2)CC(c2ccccc2)C(=O)N3C)n1` (stereo unspecified) here?
Answer: The Potency was inconclusive: 44.7 µM [inhibitor, partial curve, poor fit].

Question: With `CCN(CCOc1ccc(F)cc1)C(=O)c1cnc(NC(C)C)nc1` as the compound, how does the Potency read?
Answer: The Potency was inconclusive: 22.4 µM [inhibitor, full curve].

Question: For `O=C(CN1CCCc2nc(-c3ccncc3)ncc2C1=O)NCCCN1CCOCC1`, which Potency is on record?
Answer: Its Potency is “inactive”.

Question: With `COc1cccc(CN2CCc3c(cc(C(=O)N(C)C)n3C)C2)c1` as the compound, how does the Potency read?
Answer: Its Potency is “inactive”.

Question: Which Potency does the source give for `CN1[C@@H](CCC(=O)NCc2cccs2)CNC(=O)[C@@H]2[C@H]1CCN2CC1CC1` here?
Answer: The Potency was “inactive”.

Question: For `CCCNC(=O)N1CCCC(c2nc(CCOc3cccc(C)c3)no2)C1` (stereo unspecified), which Potency is on record?
Answer: The Potency was inconclusive: 50.1 µM [inhibitor, partial curve, poor fit].

Question: Which Potency does the source give for `COc1cccc(-c2cc(C(=O)NCc3cccnc3)c3cnn(C)c3n2)c1` here?
Answer: Its Potency is inconclusive: 44.7 µM [inhibitor, partial curve, poor fit].
